Data on 112 compounds can be found in PubChem BioAssay AID488969 (Vanderbilt High Throughput Screening Facility, 2010).

“And” between values parts separate entries of the source, which are not always exact repeats. Equal values may be shown once. The full ranking holds about 110,000 compounds; the median of “z-score” is about -0.1, and the highest 2% start at about 2. The list shows a part of the results. The source made the active and inactive calls.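 The calls were made as follows: active = z-score in the third read window above 3 or below -3; inactive = the rest.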

The target in the assay is Metabotropic glutamate receptor 8 (Rattus norvegicus) (UniProt P70579). Nature of the assay: mGluR8 Gi/Go-coupled signaling modulation – cell-based, rat, thallium flux, HTS, primary screen (AID 488969). As to conditions: HEK293 rat mGluR8, GIRK (G protein-gated inwardly rectifying potassium channel) thallium flux, FluoZin2; at 10 µM; stronger effect = higher value; submaximal glutamate (EC20) added with thallium.
Sequence of UniProt P70579 (P70579 whole entry, looked up): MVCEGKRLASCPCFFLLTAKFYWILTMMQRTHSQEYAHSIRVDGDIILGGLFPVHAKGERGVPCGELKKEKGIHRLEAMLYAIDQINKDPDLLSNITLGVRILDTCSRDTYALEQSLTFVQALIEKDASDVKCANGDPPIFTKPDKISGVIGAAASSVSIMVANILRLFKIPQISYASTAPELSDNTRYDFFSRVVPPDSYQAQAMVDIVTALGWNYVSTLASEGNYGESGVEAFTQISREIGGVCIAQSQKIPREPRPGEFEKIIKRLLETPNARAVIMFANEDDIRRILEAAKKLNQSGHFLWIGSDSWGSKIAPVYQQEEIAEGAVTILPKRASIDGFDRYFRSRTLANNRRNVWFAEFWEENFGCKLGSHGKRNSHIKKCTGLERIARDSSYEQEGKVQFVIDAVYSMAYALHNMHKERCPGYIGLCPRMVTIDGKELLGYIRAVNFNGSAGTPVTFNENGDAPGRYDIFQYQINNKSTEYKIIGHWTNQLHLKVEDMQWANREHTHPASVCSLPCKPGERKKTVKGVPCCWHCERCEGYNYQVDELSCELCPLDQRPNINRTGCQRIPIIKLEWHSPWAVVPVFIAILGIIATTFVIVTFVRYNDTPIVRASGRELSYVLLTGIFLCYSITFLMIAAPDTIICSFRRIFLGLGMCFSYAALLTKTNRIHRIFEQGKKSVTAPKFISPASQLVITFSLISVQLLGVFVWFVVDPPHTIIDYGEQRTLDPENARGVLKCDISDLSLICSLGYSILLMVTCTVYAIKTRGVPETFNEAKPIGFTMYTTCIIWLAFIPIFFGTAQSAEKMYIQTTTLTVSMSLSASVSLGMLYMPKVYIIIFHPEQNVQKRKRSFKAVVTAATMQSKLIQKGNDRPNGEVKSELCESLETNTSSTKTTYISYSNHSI
As to `Cc1cccc(C)c1NC(=O)CN1C(=O)S/C(=C\c2cccn2-c2cccc(C(=O)O)c2)C1=O`, the z-score is -0.39. `COc1ccccc1NS(=O)(=O)c1cccc(C(=O)NN=C2CCCCCC2)c1` had a z-score of 0.00957. With `CCOc1ccc(C(=O)N/N=C(\c2ccccc2)c2ccccn2)cc1`, the z-score was -0.453. With `O=S(=O)(Cc1ccc(Cl)cc1)N1CCCC1`, the z-score was 0.31. As for `CCCCC(=O)Nc1nnn(CCC)n1`, the z-score amounted to 0.274. The compound `Cc1nn(C)cc1/C=N/NC(=O)c1sc2ccccc2c1Cl` returned a z-score of 0.226. Consider `O=C(CSc1nnc(-c2cnccn2)n1Cc1ccco1)c1ccc(Cl)cc1`, for which the z-score was -0.74. `CC1(C)CCC(C)(C)NC(=S)N1` yielded a z-score of 0.163. As for `CCOc1cnc(-c2ccc(Cl)cc2)o1`, the figure is -0.137. Compound `COc1ccccc1-c1nc(-c2ccc(Br)o2)no1` returned a z-score of -0.865. Compound `CCOC(=O)CC1COc2ccccc2N1C(=O)c1ccc(C)cc1` (configuration not stated) yielded a z-score of -0.591. In the case of `CC(C)(C)C(=O)COC(=O)c1cccc(NC(=O)c2ccco2)c1`, the z-score turned out to be 1.97. For the compound `COc1ccc(-c2cn(-c3ccccc3)c3[n+]2CCS3)cc1`, the z-score was 0.217 and -0.0432. Turning to `O=C(CCc1ccc(S(=O)(=O)NCc2ccccc2)cc1)NCc1cccnc1`, the z-score was -0.0913.

`Cc1ccccc1NC(=O)C1CC(=O)N(c2ccccc2F)C1` (configuration not stated): the z-score was 0.299. `COC(=O)/C(=C/c1ccc2c(c1)c1ccccc1n2C)NC(=O)c1ccccc1`: the z-score was -0.303. Compound `COc1ccc(CCNC2CC(=O)N(C)C2=O)cc1OC` (configuration not stated) showed a z-score of -0.0319. As for `COc1ccc(C(=O)n2cc(C(=O)c3cc(C)ccc3O)cn2)cc1`, the figure is -1.28. In the case of `C=CCn1c(CNC(=O)c2cccs2)nnc1SCC(=O)Nc1ccc(C(=O)O)cc1` it was -0.0859; in that of `CCN(CCNC(=O)CN1CCN(Cc2ccc(Cl)cc2)C1=O)c1ccccc1`, -0.278. In turn, `O=C(O)c1ccc(CSc2nc3ccccc3o2)cc1` gave a z-score of 0.254.

`CCOC(=O)c1c(C)[nH]c(N=Nc2ccccc2C)c1C` yielded a z-score of -0.442. The compound `CC1=NNC(=O)C1C(c1ccccc1)C(C#N)C#N` (configuration not stated) had a z-score of -0.494. In turn, `CCCCCn1c(CN2CCN(c3cccc(Cl)c3)CC2)nc2c1c(=O)[nH]c(=O)n2C` came in with a z-score of 0.565. `Cc1oc2c(CN3CCCC3)c(O)ccc2c(=O)c1-c1ccc(Cl)cc1`: the z-score was -0.5. Take `O=C1C=C(N2CCN(C(=O)c3ccccc3)CC2)C2(CCCCC2)O1`: the z-score was determined as 1.34. As for `CC1(C)Oc2ccc3ccc(=O)oc3c2/C(=C/NCCN/C=C2\C(=O)C(C)(C)Oc3ccc4ccc(=O)oc4c32)C1=O`, the figure is 0.187. With `CC(C)CNC(=O)CSc1ccc(Cl)cc1`, the z-score is -0.519.

In turn, `CC1CCCCN1Cc1c(C#N)c2ccccc2n1C` (configuration not stated) registered a z-score of -1.44. The compound `COc1ccnc(Oc2ccc(C)cc2)c1C#N` displayed a z-score of -0.0228. As to `Cc1c2cnn(CC(=O)O)c(=O)c2c(C)n1Cc1ccccc1`, the z-score was -0.192.

Compound `COc1ccc(C(=O)N/N=C/C(Br)=C/c2ccccc2)cc1` displayed a z-score of 0.231. In the case of `COC(=O)c1ccc(-n2c(C)nc(=O)c(-c3ccccc3)c2C)cc1` it was 0.123; in that of `O=C(O)C1CCN(C(=O)OCc2ccccc2)CC1`, -0.336. The compound `COC(=O)Cc1ccc(NC(=S)NCc2ccccc2)cc1` showed a z-score of -0.185. In the case of `Cc1cc(C)cc(-c2nnc(SCC(=O)NCc3cccs3)o2)c1` it was -0.232; in that of `Cc1ccc(C)c(S(=O)(=O)NCc2ccncc2)c1`, 0.836; in that of `CCC(CC)c1nnc(NC(=O)c2cccc(S(=O)(=O)N3CCc4ccccc43)c2)s1`, 0.234.

In turn, `CC(C)COP(=O)(OCC(C)C)C(Nc1ccccc1)c1ccc(F)cc1` (configuration not stated) came in with a z-score of -0.0643.

For `COCCn1c(SCC(=O)NCc2ccccc2)nnc1-c1ccco1`, the z-score worked out at 0.995. The compound `CCCNC(=O)c1cc(-c2ccc(Br)cc2)on1` registered a z-score of -0.133. In the case of `CCOC(=O)n1c(SCC(N)=O)nc2ccccc21` it was -0.291; in that of `COc1cccc(C=Nc2ccccc2C(=O)Nc2nccs2)c1OC`, 0.364; in that of `COC(=O)c1sccc1NC(=O)c1c(C)cc(=O)oc1C`, -0.28. In the case of `CC(C)CNC(=O)COc1ccc(Sc2ccc(OCC(=O)NCC(C)C)cc2)cc1` it was -0.033; in that of `Cc1ccc(-c2nnc(SCC(=O)Nc3ccc4c(c3)OCCO4)n2N)cc1`, active: 14.1; in that of `Cc1cccc(C(=O)N/N=C/c2ccc(OCC(=O)N3CCCCC3)cc2)c1`, -0.129.

`O=C(c1nn(-c2ccccc2)c(=O)c2ccccc12)N1CCN(c2ccccn2)CC1`: the z-score was -1.04.

Take `Cc1cccc(NC(=S)Nc2cccc(C(F)(F)F)c2)n1`: the z-score worked out at 0.00721.

Compound `Cc1ccccc1OCC(=O)N/N=C/c1ccco1` registered a z-score of 0.0836. As for `O=C(CCNC(=O)Cn1ccc2ccccc2c1=O)NCCN1CCN(c2cccc(Cl)c2)CC1`, the figure is -0.463; as for `CC(C)(C)NC(=O)C(c1cccs1)N(CC1CCCO1)C(=O)c1ccc(-c2ccccc2)[nH]1` (configuration not stated), -1.41; as for `Cc1ccccc1NC(=O)c1ccc(CN2CCc3ccccc3C2)cc1`, -0.165.

Compound `Cc1nnc(SCC(=O)Nc2cc(-c3cc(C)c(C)cc3C)nn2-c2ccccc2)s1` registered a z-score of -0.106. As for `O=C(Nc1cc(Oc2ccc(Cl)cc2)cc([N+](=O)[O-])c1)c1ccco1`, the z-score was -0.326. `COc1ccc(C(=S)Nc2ccc(C)cc2)cc1`: the z-score worked out at 0.176. In the case of `CCOC(=O)C1CN(S(=O)(=O)c2ccccc2)C1`, the z-score is -0.112. As for `COCCn1nnnc1CN1CCOCC1`, the figure is 0.018. With `CCOc1ccccc1Nc1nc(N)nc(CSc2nccc(C)n2)n1`, the z-score stood at 0.0399. On to `CCOC(=O)c1c(Nc2ccccc2)sc(/C=C2\C=Nc3ccccc32)c1O`, for which the z-score was 0.0111. In the case of `Cc1cccc(NC(=S)NC(NC(=O)OCc2ccccc2)C(Cl)(Cl)Cl)c1` (configuration not stated) it was 0.6; in that of `O=C(CC1NCCNC1=O)OCCCc1ccccc1` (configuration not stated), 1.22; in that of `Brc1ccc(OCCCN2CCOCC2)cc1`, -0.0547. Turning to `CC(=O)NS(=O)(=O)c1ccc(NC(=O)COc2ccc(C(=O)c3ccccc3)cc2)cc1`, the z-score was 0.359.

`Fc1cccc(Cl)c1Cn1nnc2c(NCc3ccccn3)ncnc21` yielded a z-score of -1.36. The compound `CCCC/S(CC1CC1(Cl)Cl)=N\S(=O)(=O)c1ccc(C)cc1` (configuration not stated) came in with a z-score of 0.0545.

For the compound `Cc1ccc(/C=C/C2=NN(Cc3ccccc3Cl)C(=O)CC2)cc1`, the z-score is -0.163. In the case of `CC1C/C(=N/NC(=O)c2ccc(CSc3nc4ccccc4[nH]3)cc2)CC(C)(C)C1` (configuration not stated), the z-score was -0.00645.

`O=C(NN1CCOCC1)c1cc(-c2ccc(Br)cc2)nc2ccccc12`: the z-score worked out at 2.02. For the compound `COc1ccc(-c2nnc(SCC(=O)NCc3ccco3)n2C)cc1`, the z-score was 0.202. The compound `CCC(=O)NCCc1c[nH]c2ccccc12` showed a z-score of -0.65. For the compound `Cn1c(SCC(=O)N2c3ccccc3CCc3ccccc32)nnc1-c1ccc(O)cc1`, the z-score was active: 5.88.

In turn, `c1cncc(-c2noc(CC3CCCCC3)n2)c1` showed a z-score of -0.621. On to `O=C1NC(=O)C2(CCc3ccccc32)N1` (configuration not stated), for which the z-score stood at 0.222. Regarding `CN1C(=O)NC(c2ccccc2)C2=C1CN(Cc1ccccc1)C2=O` (configuration not stated), the z-score is active: 7.33. For the compound `Cc1ccc(OCc2nnc(SCC(=O)N3c4ccccc4Sc4ccc(Cl)cc43)o2)cc1`, the z-score is -0.0543. Consider `Cc1[nH]c2ccccc2c1N=Nc1ccccc1C(=O)O`, for which the z-score is -0.0857. In the case of `CC(=O)Nc1ccc(S(=O)(=O)NCCc2ccccc2)cc1` it was -0.111. As for `Cc1ccccc1NC(=S)NC1(C)CCS(=O)(=O)C1` (configuration not stated), the figure is 0.0265. Compound `Cc1cc(C(F)(F)F)nn1Cc1n[nH]c(=S)n1Cc1ccccc1` had a z-score of 1.27. In turn, `COC(=O)c1ccccc1NC(=O)N1CSC[C@H]1C(=O)OC` returned a z-score of -0.0884. The compound `CCOC(=O)N1CCN(C(=O)c2oc3ccc(S(=O)(=O)N4CCCCCC4)cc3c2C)CC1` gave a z-score of -0.281. In the case of `COc1ccc(CN(C)Cc2nc3scc(-c4ccccc4)c3c(=O)[nH]2)cc1OC` it was -0.276; in that of `O=C(Nc1ccccc1-c1ccccc1)NC1CCN(CC(=O)N2CCOCC2)CC1`, 0.57. As for `COc1ccc(CNC(=O)C(CCSC)NC(=O)c2ccco2)cc1` (configuration not stated), the z-score came out at 0.0134. `CCCNS(=O)(=O)c1ccc(CCC(=O)N2CCN(CC)CC2)cc1` yielded a z-score of 0.133. In the case of `CCCOc1cccc(-c2cc(C(=O)NNC(=S)NCC)c3ccccc3n2)c1`, the z-score stood at 0.0683.

Take `CC(=O)NC(CCS(C)(=O)=O)C(=O)Nc1cccc(C)c1` (configuration not stated): the z-score was -0.274.

Compound `Cc1csc(SCC(=O)NCc2cccs2)n1` came in with a z-score of 0.824. For `CSc1nnc(-c2sc3cc(C(F)(F)F)cnc3c2-c2ccccc2)n1C`, the z-score is -1.06. `NC1=NC(=O)/C(=C\c2cccs2)S1` came in with a z-score of -0.0766.

Regarding `Cn1c(=O)c2c(nc(SCC(=O)Nc3ccccc3N3CCCCC3)n2C)n(C)c1=O`, the z-score is 0.726. In the case of `CCC(=O)Nc1nc(-c2ccc3c(c2)OCCO3)cs1` it was -0.0358; in that of `N#C/C(=C/c1ccc(N2CCOCC2)o1)c1ccc(Br)cc1`, -0.0495; in that of `Cc1ccc(Oc2ccc(Oc3ccc(C)cc3)nn2)cc1`, -0.0077. `CCC1=NN(C(=O)C(=O)Nc2ccccc2OC)C(O)(C(F)(F)F)C1` (configuration not stated) gave a z-score of -0.112. As for `C=CCN1C(=O)C2(c3ccccc31)C1CCCC=C1C(C#N)=C(N)C2(C#N)C#N` (configuration not stated), the figure is 0.086. `O=C(Nc1ccon1)c1cccc(S(=O)(=O)N2CCCC2)c1` registered a z-score of 0.0728. `Cc1ccc2nc3c(cc(C(=O)NCCCn4ccnc4)n3C)c(=O)n2c1` gave a z-score of -0.172.

Compound `Cc1ccc(NC(=O)CCNS(=O)(=O)c2ccccc2)c(C(=O)c2ccccc2)c1` had a z-score of -0.33.

In turn, `Cc1[nH]n(C(N)=S)c(=O)c1N=Nc1ccc(S(=O)(=O)N2CCCC2)cc1` had a z-score of 0.339. Compound `Cc1cccc(C)c1NC(=O)C(c1cccc([N+](=O)[O-])c1)N(C)C(=O)c1ccccn1` (configuration not stated) gave a z-score of -0.125. In the case of `CC(NC(=O)CCCCCN1C(=O)c2ccccc2C1=O)c1ccc2c(c1)CCCC2` (configuration not stated), the z-score is -0.602. As for `COc1ccc2c(c1)c(C(C)=O)c(C)n2-c1ccccc1`, the z-score is -1.12. `Cn1c(-c2ccc(F)cc2)cnc1NCc1cccc(F)c1` came in with a z-score of -0.013. Compound `CCCCC(=O)Nc1ccc(C(=O)NCCCn2ccnc2)cc1` returned a z-score of 0.21.

On to `CCOC(=O)C1=C(O)C(=O)N(c2ccc(S(N)(=O)=O)cc2)C1c1ccccc1` (configuration not stated), for which the z-score was active: -4.02. In turn, `CCCCC/C=N\NC(=O)Cc1ccc([N+](=O)[O-])cc1` yielded a z-score of -0.066. `CCOC(=O)CC(NC(=O)c1cc2cc(Br)ccc2oc1=O)c1cccc([N+](=O)[O-])c1` (configuration not stated) returned a z-score of -0.0679. `CC(NC(=O)c1ccc(CS(=O)(=O)Cc2ccccc2F)o1)c1ccc2c(c1)OCCO2` (configuration not stated) returned a z-score of 0.0841. Turning to `CC(=O)COc1ccc2c(C)c(C)c(=O)oc2c1`, the z-score is -0.282. As for `CCc1ccc(-c2csc3ncn(CC(=O)N4CCOCC4)c(=O)c23)cc1`, the z-score is -0.253.
